Over roughly 33,000 sequences, “E-score (-0.5 to 0.5)” has its median near -0.053; the highest 2% begin near 0.37. The list shows a part of the results.
Biological target: Hap1 (UniProt P0CE41)
Experiment: PBM E-score (8-mer binding enrichment) (E-score (-0.5 to 0.5)); higher = stronger / more preferred TF binding; most listed sequences are background and not binding sites
Conditions: protein concentration: 200 nM; construct: GST-DNA-binding domain
Summary of the method: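 E-scores (a modified Wilcoxon-Mann-Whitney statistic) were assigned by the Universal PBM Analysis Suite to every ungapped eight-base word pooled with its reverse complement. The input came from universal all-10-mer Agilent arrays made double-stranded by primer extension and probed with GST-tagged yeast transcription factors at about 100-200 nM. Fluorescent anti-GST detected bound protein, and masliner normalised the scans.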

UniProt P0CE41, sequence (P0CE41 whole entry): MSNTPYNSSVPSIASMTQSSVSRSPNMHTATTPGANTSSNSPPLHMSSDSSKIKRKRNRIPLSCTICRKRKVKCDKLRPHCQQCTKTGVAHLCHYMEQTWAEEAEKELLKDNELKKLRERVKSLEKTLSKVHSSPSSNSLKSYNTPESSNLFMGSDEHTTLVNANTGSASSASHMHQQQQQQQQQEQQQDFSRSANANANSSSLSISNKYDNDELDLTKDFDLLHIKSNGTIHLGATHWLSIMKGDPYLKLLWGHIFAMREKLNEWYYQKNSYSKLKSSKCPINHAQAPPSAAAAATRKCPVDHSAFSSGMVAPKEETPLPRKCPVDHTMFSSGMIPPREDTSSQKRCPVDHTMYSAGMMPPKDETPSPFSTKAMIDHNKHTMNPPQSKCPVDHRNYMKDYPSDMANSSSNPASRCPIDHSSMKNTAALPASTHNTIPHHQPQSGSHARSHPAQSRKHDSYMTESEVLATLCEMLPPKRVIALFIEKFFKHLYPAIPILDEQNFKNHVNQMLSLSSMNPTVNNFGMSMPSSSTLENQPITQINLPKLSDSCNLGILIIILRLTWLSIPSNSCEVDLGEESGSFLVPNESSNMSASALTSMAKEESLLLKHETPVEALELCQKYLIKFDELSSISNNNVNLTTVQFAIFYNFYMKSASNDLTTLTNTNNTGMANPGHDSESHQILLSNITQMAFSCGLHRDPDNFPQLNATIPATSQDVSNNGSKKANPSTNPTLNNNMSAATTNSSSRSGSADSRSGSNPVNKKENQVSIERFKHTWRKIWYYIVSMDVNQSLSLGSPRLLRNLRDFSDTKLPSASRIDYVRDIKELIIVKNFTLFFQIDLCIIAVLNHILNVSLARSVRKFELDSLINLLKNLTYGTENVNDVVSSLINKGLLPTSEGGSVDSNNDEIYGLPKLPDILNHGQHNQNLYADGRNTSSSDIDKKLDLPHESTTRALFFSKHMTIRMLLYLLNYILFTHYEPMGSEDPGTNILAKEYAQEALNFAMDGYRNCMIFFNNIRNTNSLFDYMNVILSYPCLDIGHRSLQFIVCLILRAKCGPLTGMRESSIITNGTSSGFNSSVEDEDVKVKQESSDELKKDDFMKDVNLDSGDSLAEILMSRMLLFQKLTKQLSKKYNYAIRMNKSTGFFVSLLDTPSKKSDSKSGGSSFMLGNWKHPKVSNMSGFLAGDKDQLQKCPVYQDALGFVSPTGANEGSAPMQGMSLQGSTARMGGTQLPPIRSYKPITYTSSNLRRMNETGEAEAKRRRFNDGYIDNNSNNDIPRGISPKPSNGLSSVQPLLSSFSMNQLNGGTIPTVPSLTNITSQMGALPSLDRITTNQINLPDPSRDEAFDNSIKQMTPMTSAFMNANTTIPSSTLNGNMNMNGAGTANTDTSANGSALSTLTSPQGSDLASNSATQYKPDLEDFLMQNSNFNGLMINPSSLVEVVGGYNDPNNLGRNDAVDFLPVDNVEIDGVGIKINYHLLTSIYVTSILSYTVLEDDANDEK

| Sequence | PBM E-score |
| --- | --- |
| CTGCTAAG | -0.146 |
| ACGCATGG | 0.00125 |
| GATATCGC | 0.304 |
| ACGTACGG | 0.126 |
| GCACACGA | -0.168 |
| CGAGGGCA | -0.00305 |
| ATCGCTAA | 0.00029 |
| ACTTACCG | 0.305 |
| CACCTGTA | -0.173 |
| GGAGGCAC | -0.0675 |
| ATACAAAG | -0.00814 |
| ACACAACG | 0.0891 |
| AACTCGCC | -0.0217 |
| ACTAGACC | 0.0797 |
| AATCATTC | -0.0493 |
| ATCGGTGC | 0.258 |
| CTGCATTC | -0.0182 |
| CAACACAC | -0.196 |
| AAGTCGTC | -0.0478 |
| GACAGAGC | -0.162 |
| AACTGGGA | -0.061 |
| GCTACCCA | -0.146 |
| AAAAAGGG | -0.0854 |
| AGGGAAAA | -0.127 |
| AGAGGGTC | -0.25 |

| Sequence | PBM E-score |
| --- | --- |
| AGTGTAGA | -0.389 |
| TACCCCTA | -0.146 |
| TAGATCTA | -0.0902 |
| ATATCAAA | 0.039 |
| AGCCGTTC | -0.0405 |
| CGCAAGCG | -0.188 |
| GGTCGGAC | 0.342 |
| CCTCAGGA | -0.106 |
| AAAACCCA | 0.0982 |
| GCTCGCAA | -0.143 |
| ACTGGGTG | -0.124 |
| ACTCTTTC | -0.154 |
| ATCTAGAA | -0.142 |
| CCTTCTGA | -0.147 |
| ACTCGATG | -0.129 |
| CAGGCCTG | -0.0909 |
| CGCAGGGA | -0.0967 |
| ATAAGCCC | 0.195 |
| GGATACGA | -0.0114 |
| ATGATAAA | 0.0373 |
| ATATACGG | 0.184 |
| CCCCAAAA | -0.133 |
| CATCTAGG | -0.185 |
| CCTAATAA | -0.0541 |
| CTTCGTAA | -0.226 |

| Sequence | PBM E-score |
| --- | --- |
| GGGTTCCA | 0.135 |
| ACTGCAGG | -0.33 |
| GAGCCCTC | -0.0963 |
| GTGCTATA | -0.195 |
| CTTCAAGC | -0.221 |
| CAGAGTTA | -0.21 |
| CGACCGTA | 0.0335 |
| ACGATTGA | -0.0308 |
| CCACCCGA | 0.259 |
| ATAGGAAC | -0.246 |
| CCGGCCCG | 0.434 |
| GGTATACA | -0.0452 |
| AAACAGAG | -0.247 |
| ATACCTTG | -0.105 |
| AGGCATAT | -0.181 |
| CATTTGCG | 0.105 |
| AGTGCGAA | -0.0821 |
| CTAGCCAA | -0.144 |
| AATACTCT | -0.201 |
| ATCCCTCA | 0.0132 |
| TACGTTAA | -0.125 |
| AGAATCTC | -0.0657 |
| CGTACCCA | -0.125 |
| GCTCATTA | -0.0231 |
| ATTACGGC | 0.101 |

| Sequence | PBM E-score |
| --- | --- |
| GTTGGAAA | -0.0251 |
| ATAATTTA | -0.0658 |
| ACGTCCAG | -0.113 |
| AGAAGACT | -0.226 |
| ACCTAGGA | -0.114 |
| GCCGGCAA | 0.373 |
| AAAGGGAG | -0.27 |
| CTATTGTA | -0.0441 |
| CGCTTGTA | 0.249 |
| GAGTCACC | -0.115 |
| ACGCCAGG | -0.0431 |
| GGAATGCC | 0.191 |
| AACTTACT | -0.0986 |
| TCATCTCA | -0.112 |
| CCGATGTC | 0.295 |
| CAGCTAAC | -0.187 |
| ACACTGGG | -0.115 |
| ATATCTTA | -0.0336 |
| CGACCTTA | 0.0924 |
| AAGTTCTA | 0.00638 |
| AATAGGTA | -0.145 |
| AGATGTGC | -0.078 |
| AAAACCAT | -0.0143 |
| TTATTGAA | -0.295 |
| CGGTGGCA | -0.0459 |

| Sequence | PBM E-score |
| --- | --- |
| GCACCACA | -0.168 |
| TAACGAGA | -0.143 |
| AGCACCAG | -0.125 |
| CCGCCTCC | 0.0265 |
| CCCATGGA | -0.191 |
| CATTGAAA | -0.0176 |
| GCCGCTAA | 0.287 |
| AGCTGTAC | 0.112 |
| ATTCATGG | -0.137 |
| CAATTCTA | -0.177 |
| ACCTGCAA | -0.255 |
| ATACATGA | -0.295 |
| CGCCAAGA | -0.172 |
| CATAGTCC | 0.0144 |
| AGAACCAT | -0.122 |
| TAATTTAA | -0.0891 |
| GATCTGCA | 0.0206 |
| ACGCAAGC | -0.202 |
| TCTTCTAA | -0.0562 |
| ATGATCAC | -0.0881 |
| AACATATT | -0.0778 |
| GGTCATTA | 0.0807 |
| ACGCCGCT | 0.108 |
| CACCGTGA | -0.0173 |
| ACCCGCAG | 0.139 |

| Sequence | PBM E-score |
| --- | --- |
| AAACCTAC | -0.148 |
| AAGCCGCC | 0.104 |
| ACTAAGGG | -0.0353 |
| AGAGTACC | -0.0888 |
| AGCAGTTA | -0.0815 |
| AATACCTC | -0.00341 |
| CTTCTCTA | -0.267 |
| GGATGAAA | 0.17 |
| CATGGAAC | -0.105 |
| CTTCTAGC | -0.0959 |
| CCACTGCC | -0.0683 |
| CTCAAGAA | -0.123 |
| ACAAAAAT | -0.0901 |
| AACACCAT | -0.0255 |
| AGAAGTGA | -0.196 |
| ATCTTAGC | -0.0669 |
| ATAACGCG | 0.171 |
| AACGCAAA | 0.065 |
| GCATTAAA | -0.102 |
| CGGCGTAC | 0.267 |
| GATAGCGC | 0.0877 |
| AGATGGCC | 0.11 |
| ACTACTCG | 0.13 |
| CCGAAGGC | 0.256 |
| AAAAAAGC | -0.123 |

| Sequence | PBM E-score |
| --- | --- |
| CACTATCC | -0.0832 |
| CCGATGGC | 0.204 |
| GATCGGCA | 0.206 |
| TCGACAGA | -0.329 |
| CGCGACCC | 0.00906 |
| TGCTAAAA | -0.0739 |
| CAATTCTG | -0.284 |
| GCTGAATA | -0.281 |
| AATGGTCA | -0.179 |
| ATTGTTTG | -0.163 |
| TCAGTTCA | -0.153 |
| GTGTGAAC | -0.107 |
| AACCCTGT | -0.129 |
| ACTTGCAA | -0.093 |
| AAGGTAAC | -0.049 |
| TGGGCACA | -0.229 |
| ATGGGCAA | -0.0279 |
| AGCCCTTG | -0.311 |
| GATTGCTA | -0.236 |
| GGGAGAAC | -0.0503 |
| TAGATCGA | -0.101 |
| ATTTAGGG | 0.197 |

— the supplement of paper PMC3334620
